Reference: publication PMC4336329 (PLoS ONE, 2015)
Hit rate of the full screen: of about 310,000 compounds, about 2,200 (0.71%) showed an effect of 50% or more. The effect is printed as a negative number. The list shows a part of the results.

Target: human ether-à-go-go-related gene (hERG) potassium channel (human, UniProt Q12809)
Assay: primary screen, population patch clamp on CHO cells stably expressing hERG

human ether-à-go-go-related gene (hERG) potassium channel, sequence (Q12809 whole entry, looked up): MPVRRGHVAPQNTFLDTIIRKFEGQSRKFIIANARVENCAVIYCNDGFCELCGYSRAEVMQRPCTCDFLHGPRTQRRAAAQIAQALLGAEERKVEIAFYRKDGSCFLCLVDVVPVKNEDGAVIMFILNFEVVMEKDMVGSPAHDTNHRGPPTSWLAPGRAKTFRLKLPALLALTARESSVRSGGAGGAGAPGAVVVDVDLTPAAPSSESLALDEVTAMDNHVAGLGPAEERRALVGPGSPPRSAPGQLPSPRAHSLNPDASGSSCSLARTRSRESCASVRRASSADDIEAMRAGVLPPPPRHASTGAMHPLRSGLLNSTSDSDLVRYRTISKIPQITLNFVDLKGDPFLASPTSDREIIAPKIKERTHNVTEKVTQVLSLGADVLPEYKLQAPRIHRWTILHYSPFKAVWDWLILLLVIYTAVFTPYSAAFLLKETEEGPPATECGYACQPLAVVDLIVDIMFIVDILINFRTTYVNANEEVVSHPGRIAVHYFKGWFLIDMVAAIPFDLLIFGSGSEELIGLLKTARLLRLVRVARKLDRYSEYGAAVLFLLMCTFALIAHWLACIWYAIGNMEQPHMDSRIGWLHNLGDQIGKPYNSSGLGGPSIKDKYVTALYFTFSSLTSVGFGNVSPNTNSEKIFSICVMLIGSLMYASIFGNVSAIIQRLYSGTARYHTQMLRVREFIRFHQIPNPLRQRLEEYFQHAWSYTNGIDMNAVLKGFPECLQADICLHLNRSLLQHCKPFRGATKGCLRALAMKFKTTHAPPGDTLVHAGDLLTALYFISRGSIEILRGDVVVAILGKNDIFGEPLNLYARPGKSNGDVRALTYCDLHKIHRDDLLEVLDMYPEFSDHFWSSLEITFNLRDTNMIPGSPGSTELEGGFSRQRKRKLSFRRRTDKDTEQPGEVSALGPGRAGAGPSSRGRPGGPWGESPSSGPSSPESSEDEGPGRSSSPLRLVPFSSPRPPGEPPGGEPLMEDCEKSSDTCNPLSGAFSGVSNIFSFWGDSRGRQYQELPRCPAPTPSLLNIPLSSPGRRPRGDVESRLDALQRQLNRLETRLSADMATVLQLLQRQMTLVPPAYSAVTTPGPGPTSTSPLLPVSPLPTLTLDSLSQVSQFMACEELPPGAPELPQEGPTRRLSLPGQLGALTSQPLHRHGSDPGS

Row | SMILES | hERG current change (%, negative = inhibition) at 1uM
1 | O=C(Nc1ccc(F)cc1F)c1cccnc1 | 12.3%
2 | Cc1ccc(OCC(=O)N2CCN(C(=O)c3cccc(F)c3)CC2)cc1 | 0.583%
3 | NS(=O)(=O)c1ccc(CCNC(=O)CNCCc2ccc(C(F)(F)F)cc2)cc1.O=C(O)C(=O)O | 4%
4 | CC1CCCN(c2ccc(/C=C(\C#N)c3nn(-c4ccccc4)c(N)c3C#N)cc2[N+](=O)[O-])C1 (stereo not shown) | 11.1%
5 | CC(=O)OCCN1C(=O)c2cccc3cc([N+](=O)[O-])cc(c23)C1=O | -8.43%
6 | Cc1ccc(C2C3C(=O)N(c4ccccc4)C(=O)C3N3CCCN23)cc1 (stereo not shown) | 12.9%
7 | COc1ccc(S(=O)(=O)N(C)CC(=O)NC2CCCC2)cc1OC | 15.4%
8 | O=C(/C=C/c1cccc(F)c1)Nc1cc(S(=O)(=O)N2CCOCC2)ccc1N1CCCC1 | 0.626%
9 | COC(=O)[C@@H]1C[C@@H]2CC[C@@H](O)C[C@@H]2N1Cc1ccccc1OS(=O)(=O)c1ccc(C)cc1 | 6.43%
10 | Cc1ccc(C)c(NC(=O)CN(C)C(=O)c2ccc3[nH]c4c(c3c2)CC(C)CC4)c1 (stereo not shown) | 16.2%
11 | Cc1ccc(-c2cc(C(=O)NCCCN3CCOCC3)no2)cc1 | -0.32%
12 | CCN1CCc2c(sc(NC(=O)Nc3ccc(Cl)c(Cl)c3)c2C(N)=O)C1 | -2.53%
13 | CCCN(C(=O)c1ccccc1N)c1c(C)n(C)n(-c2ccccc2)c1=O | 13.6%
14 | Cc1ccc(OCC(=O)N(Cc2cccc(Cl)c2)C2CCS(=O)(=O)C2)cc1C (stereo not shown) | 13%
15 | NC1=C(Br)C(=O)c2ccccc2C1=O | 7.58%
16 | O=C(NCCCCCCOC1=NS(=O)(=O)c2ccccc21)C(=O)Nc1ccccc1 | 16.7%
17 | CC(=O)N1CCN(c2ccc(NC(=O)c3ccccc3Br)cc2Cl)CC1 | 1.44%
18 | COC(=O)c1cn(Cc2ccc(C(F)(F)F)cc2)cc(F)c1=O | 12.7%
19 | C=CCn1c(SCCNC(C)=O)nc2cc(-c3ccccc3)sc2c1=O | 15.8%
20 | CC(=O)N1c2ccc(S(=O)(=O)NCC3CCC(C(=O)NC4CCCCC4C)CC3)cc2CC1C (stereo not shown) | 13.1%
21 | CC(C)CCn1c(N2CCCC2)nc2c1c(=O)n(C)c(=O)n2C | 15.5%
22 | CCCSc1nc2cc(S(=O)(=O)N3CCOCC3)ccc2n1CC | 10%

Row | SMILES | hERG current change (%, negative = inhibition) at 1uM
23 | CCOC(=O)c1cn(CC2CC2)c2cc(F)c(F)cc2c1=O | 10.3%
24 | CCOc1ccc(-c2nn(-c3ccccc3)cc2/C=C2\SC(=S)N(C3CCS(=O)(=O)C3)C2=O)cc1 (stereo not shown) | 9.76%
25 | CCOc1ccc(-n2c(-c3cccs3)nc3ccccc3c2=O)cc1 | 17.9%
26 | Cc1ccc(CONC(=O)c2ccccc2)cc1 | 15.5%
27 | O=c1[nH]cc(N2CCCCCC2)c(=O)[nH]1 | 18.9%
28 | CC(C)NC(=O)CN1CCC(c2ccccc2)C(O)C1 (stereo not shown) | 14.8%
29 | CCN(CC)CCN(C(=O)c1ccc(Br)s1)c1nc2cc3c(cc2s1)OCCO3.Cl | 10.9%
30 | O=C(/C=C/c1ccc2c(c1)OCO2)c1ccc[nH]1 | 8.18%
31 | CCCOc1ccc(N2C(=O)CC(N(CCc3ccc(OC)cc3)C(=O)c3ccccc3)C2=O)cc1 (stereo not shown) | 13.5%
32 | CCN(CC)CCNS(=O)(=O)c1ccc2c3c(cccc13)C(=O)N2 | 11.6%
33 | O=C(Cn1cnc2c(nnn2-c2ccccc2)c1=O)NCC1CCCO1 (stereo not shown) | 16.8%
34 | COc1ccc(CN(C)CC(=O)Nc2sc3c(c2C#N)CCC3)cc1OC | 8.26%
35 | CCc1cccc(CC)c1NC(=O)CN1CC(C)SC1=NC1CCCCC1 (stereo not shown) | 15.6%
36 | CCCc1cc(=O)oc2cc(C)cc(OCc3nn[nH]n3)c12 | 10.4%
37 | Cc1ccc(S(=O)(=O)Oc2ccccc2N2C(=O)C3CC=CCC3C2=O)cc1 (stereo not shown) | 6.02%
38 | COc1ccc(C(=O)N2CCN(CCNC(=O)C(=O)Nc3ccc(F)cc3)CC2)cc1OC | -10.8%
39 | CCOC(=O)c1ccccc1NC(=O)COc1coc(CN2CCc3ccccc32)cc1=O | -4.62%
40 | COc1ccc(N2CCN(C(=O)c3cc4cc(Cl)ccc4[nH]3)CC2)cc1 | 13.1%
41 | CCC(C)(C)NC(=S)Nc1ccccc1C | 5.2%
42 | Cc1cc(C)n(CC(=O)N2CCCC(N3CCN(Cc4ccc5c(c4)OCO5)CC3)C2)n1 (stereo not shown) | -5.41%
43 | O=C1OCc2ccc(NC(=O)c3ccccc3C(=O)O)cc21 | 5.68%
44 | O=[N+]([O-])c1cc([N+](=O)[O-])c2c(=Nc3ccccc3)n(-c3ccccc3)n(O)c2c1 | 5.58%

Row | SMILES | hERG current change (%, negative = inhibition) at 1uM
45 | CCCCCn1c(=O)c(C(=O)Nc2ccccc2Cl)c(O)c2ccccc21 | 15.3%
46 | COc1ccc2cc(C(=O)C3CCCN(C(=O)c4csnn4)C3)ccc2c1 (stereo not shown) | 3.88%
47 | CN(C)S(=O)(=O)c1ccc(C(=O)NCC[N+]2(C)CCCCCC2)o1.[I-] | 14.1%
48 | CCCN(CCC)CCNC(=O)c1cc2c(-c3ccc(Cl)cc3)nn(C)c2s1 | 6.94%
49 | CCSc1nnc(NC(=O)CSc2nccn2-c2cccc(C)c2)s1 | 7.31%
50 | CN(Cc1ccccc1)C(=O)c1nc2ccccn2c1CN1CCC(N2CCOCC2)CC1 | 3.72%
51 | CCOC(=O)c1ccc(Oc2nc(OC)cc(OC)n2)cc1 | 7.81%
52 | Cc1cc(C)c2oc(C(=O)Nc3ccc(S(=O)(=O)Nc4nccc(C)n4)cc3)cc(=O)c2c1 | 14.2%
53 | COC(=O)c1cc(S(=O)(=O)N2CCOCC2)ccc1Sc1ccccc1N | -2.6%
54 | Cc1cc2oc(=O)c(CC(=O)NCCCN(C)C)c(C)c2c2occ(C(C)(C)C)c12 | -49.9%
55 | O=C(CCC(=O)NNC(=O)c1ccc([N+](=O)[O-])cc1)NCc1ccccc1 | 13.9%
56 | COc1ccc(C(=O)OCC(=O)NCC2CCCO2)cc1 (stereo not shown) | 10.1%
57 | CN1C(=O)C(O)(CC(=O)c2ccccc2O)c2cc(Br)ccc21 (stereo not shown) | 9.62%
58 | COC(=O)C1(C)CC1(c1ccccc1)c1ccccc1 (stereo not shown) | -0.496%
59 | COc1ccc(Br)cc1C1CC(=O)N2CN(Cc3ccccc3)CSC2=C1C#N (stereo not shown) | 9.97%
60 | O=C1CN(C(=O)COC(=O)c2ccc([N+](=O)[O-])o2)c2ccccc2N1 | 7.52%
61 | CCn1cc(C(=O)Nc2cccc(C)c2)c(=O)c2ccc(C)nc21 | 12.6%
62 | CSc1nnc(C(C)(C)C)c(=O)n1/N=C/c1ccc(C(C)C)cc1 | 16.7%
63 | COCCn1c(=O)[nH]c2cc(C(=O)Nc3cc(OC)c(OC)c(OC)c3)ccc2c1=O | 14.7%
64 | Cc1[nH]oc(=O)c1N=Nc1c(Cl)cccc1Cl | 3.8%
65 | Cc1cc(C)cc(NC(=O)CCNC(=O)N2C[C@H]3C[C@@H](C2)c2cccc(=O)n2C3)c1 | 11.7%
66 | COC(=O)c1cn(CC(=O)NC2CCCCCC2)c2ccccc12 | 4.24%

Row | SMILES | hERG current change (%, negative = inhibition) at 1uM
67 | CCCSc1ccc([C@@H]2[C@H]3C(=O)N(CC)C(=O)[C@H]3[C@]3(C(=O)OC)CCCCN23)cc1.O=C(O)C(F)(F)F | 13.6%
68 | N#Cc1c(-c2ccco2)cc(-c2ccc(F)cc2)nc1N | 3.24%
69 | CC(C)CNC(=O)c1cccc(NC(=O)CSc2ccc(Cl)cc2)c1 | 6.75%
70 | N#Cc1ccsc1NC(=O)CCc1ccccc1 | 9.06%
71 | COc1ccc(CNC(=O)C/C(C)=N/NC(=O)COc2ccccc2)cc1 | 11.4%
72 | COc1ccc(-c2cc(C(=O)Nc3sc4c(c3C#N)CCCC4)c3ccccc3n2)cc1OC | 12.2%
73 | Cc1cc(C)nc(/N=C(\N)Nc2ccc3c(c2)OCCO3)n1 | 13.3%
74 | COc1ccccc1NC(=O)COc1ccc(Br)cc1CNC1CCCC1 | 0.559%
75 | Cc1cccc(NC(=O)c2cccc(OC(=S)N3CCOCC3)c2)c1C | 10.7%
76 | CC1(C)CC(=O)C2=C(C1)c1c(ccc3ccccc13)NC2c1ccc(Br)o1 (stereo not shown) | 20.3%
77 | C#CCn1c2ccccc2c2nc3ccccc3nc21 | 14.4%
78 | O=C(c1cc(C(=O)NCCc2ccccc2)c(=O)n(CCc2ccccc2)c1)c1cc(Cl)ccc1O | 6.68%
79 | O=c1c2ccccc2nnn1COc1cccc(Cl)c1 | 8.69%
80 | COc1ccc(C(=O)CSc2nc(C)cc(C)n2)cc1[N+](=O)[O-] | 10.7%
81 | CCOC(=O)C(=CNc1cc(C)nn1C(C)(C)C)C(=O)OCC | 0.0263%
82 | COc1ccc(NC(=O)NNC(=O)c2ccc3ccccc3c2O)c(OC)c1 | 0.0914%
83 | COc1ccccc1C1/C(=C(/O)c2ccc(C)cc2)C(=O)C(=O)N1Cc1ccco1 (stereo not shown) | 9.23%
84 | Cc1ccc(N2C(=O)CC(Nc3ccc(Cl)c(S(=O)(=O)N(C)C)c3)C2=O)c(C)c1 (stereo not shown) | 6.91%
85 | CN(C)c1cccc(N(C)C)c1CNC(=O)NC(=O)c1c(F)cccc1F | 13%
